Results published in paper PMC4336329 (PLoS ONE, 2015).
Among all 310,000 compounds or so, about 2,200 (0.71%) showed an effect of 50% or more. Effects have a minus sign here. The list shows a part of the results.

What follows are compounds tested against human ether-à-go-go-related gene (hERG) potassium channel (human, UniProt Q12809) (assay: primary screen, population patch clamp on CHO cells stably expressing hERG).
human ether-à-go-go-related gene (hERG) potassium channel, sequence (Q12809 whole entry, looked up): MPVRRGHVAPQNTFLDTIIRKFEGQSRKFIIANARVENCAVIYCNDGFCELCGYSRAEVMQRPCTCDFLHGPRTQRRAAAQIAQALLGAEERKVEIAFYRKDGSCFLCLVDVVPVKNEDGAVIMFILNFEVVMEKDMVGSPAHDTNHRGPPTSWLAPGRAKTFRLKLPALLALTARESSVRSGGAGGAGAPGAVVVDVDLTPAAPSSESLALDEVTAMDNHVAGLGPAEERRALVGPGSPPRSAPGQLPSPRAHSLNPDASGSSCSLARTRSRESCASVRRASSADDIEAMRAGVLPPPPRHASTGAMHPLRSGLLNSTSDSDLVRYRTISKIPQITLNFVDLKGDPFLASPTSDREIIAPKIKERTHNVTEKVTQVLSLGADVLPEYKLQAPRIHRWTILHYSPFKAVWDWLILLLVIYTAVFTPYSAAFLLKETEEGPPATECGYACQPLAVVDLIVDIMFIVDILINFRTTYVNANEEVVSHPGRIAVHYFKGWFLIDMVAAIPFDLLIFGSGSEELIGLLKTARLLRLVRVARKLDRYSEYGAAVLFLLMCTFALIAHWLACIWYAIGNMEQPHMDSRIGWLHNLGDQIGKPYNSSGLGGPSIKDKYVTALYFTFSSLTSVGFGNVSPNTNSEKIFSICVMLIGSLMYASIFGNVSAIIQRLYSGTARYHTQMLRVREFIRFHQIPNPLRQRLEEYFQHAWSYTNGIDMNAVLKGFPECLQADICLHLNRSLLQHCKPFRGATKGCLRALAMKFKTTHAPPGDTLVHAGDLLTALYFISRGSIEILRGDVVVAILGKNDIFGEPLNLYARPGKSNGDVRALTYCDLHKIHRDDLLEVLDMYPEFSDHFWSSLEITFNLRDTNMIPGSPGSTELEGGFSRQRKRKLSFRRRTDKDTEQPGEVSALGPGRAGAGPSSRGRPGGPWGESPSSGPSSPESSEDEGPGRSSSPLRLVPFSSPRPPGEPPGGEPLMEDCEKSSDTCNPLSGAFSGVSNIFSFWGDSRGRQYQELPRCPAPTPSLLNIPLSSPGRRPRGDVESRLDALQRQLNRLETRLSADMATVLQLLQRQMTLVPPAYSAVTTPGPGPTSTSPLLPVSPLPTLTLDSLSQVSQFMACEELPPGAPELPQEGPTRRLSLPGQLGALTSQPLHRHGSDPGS

First: COc1cccc(C(=O)N(CN2CCCC2=O)c2cccc(Cl)c2)c1OC
Second: COc1ccc(CC(=O)Nc2nc3ccccc3s2)cc1S(=O)(=O)N1CCOCC1
The “hERG current change (%, negative = inhibition) at 1uM” value of the first is higher: 3.75% for the first, 1.25% for the second.

Compared with O=C(c1ccccc1)N1CCN(CC#Cc2ccccc2)CC1, CS(=O)(=O)Nc1ccccc1C(=O)N1CCN(c2ccccc2)CC1 is lower in “hERG current change (%, negative = inhibition) at 1uM” value: 5.2% for the first, 4.88% for the second.

Going from CC(OC(=O)CSc1ccc([N+](=O)[O-])cc1)C(=O)NCc1ccco1 (centres unmarked) to CCOC(=O)c1c(C)[nH]c(C(=O)OC(C)C(=O)NCc2ccccc2)c1C (centres unmarked), the “hERG current change (%, negative = inhibition) at 1uM” value rises from 12.6% to 15.8%.

First: CC(=O)Nc1ccc(NS(=O)(=O)c2ccccc2)c2ccccc12
Second: CC(=O)c1sc(-c2ccccc2)cc1NS(=O)(=O)c1ccccc1
The “hERG current change (%, negative = inhibition) at 1uM” value of the first is higher: 17.6% for the first, 12.9% for the second.

Going from CC1(C)CC(=O)C2=C(C1)NC(=O)NC2c1ccccc1Cl (centres unmarked) to Cn1c(O)c(C(=Nc2ccccc2)SCc2ccc(Cl)cc2)c(=O)n(C)c1=O, the “hERG current change (%, negative = inhibition) at 1uM” value rises from 14.7% to 16.6%.

First: Cn1cccc1Cc1nnc(SCC(=O)Nc2ccc3c(c2)OCO3)n1CCc1ccccc1
Second: CC(NC(=O)c1ccccc1F)c1nnc(SCC(=O)NC2=NCCS2)n1C (centres unmarked)
The “hERG current change (%, negative = inhibition) at 1uM” value of the first is lower: 4.99% for the first, 14.2% for the second.

First: COc1ccccc1C1CCN(Cc2ccc3ccccc3c2)CC1
Second: O=C(C(c1ccccc1)c1ccccc1)N1CCCc2ccccc21
The “hERG current change (%, negative = inhibition) at 1uM” value of the first is lower: -6.37% for the first, 6.77% for the second.

First: CCN(C(=O)CN1CCN(c2ccccc2)CC1)c1c(N)n(Cc2ccccc2)c(=O)[nH]c1=O
Second: O=C(OCCN1C(=O)c2ccccc2C1=O)c1cc(=O)[nH]c2ccccc12
The “hERG current change (%, negative = inhibition) at 1uM” value of the first is lower: 7.07% for the first, 16.9% for the second.

First: O=C(c1ccccc1)c1ccc2nc(Nc3ccccc3)c3nncn3c2c1
Second: c1coc(C2Nc3ccccc3-c3nc4ccccc4n32)c1 (centres unmarked)
The “hERG current change (%, negative = inhibition) at 1uM” value of the first is lower: 4.24% for the first, 7.75% for the second.

Going from O=C1NC(NS(=O)(=O)c2ccc(Cl)cc2)(C(F)(F)F)C(=O)N1CCc1ccccc1 (centres unmarked) to COc1cc(C2NC(=O)NC(O)(C(F)(F)F)C2C(=O)c2ccc(Cl)cc2)ccc1O (centres unmarked), the “hERG current change (%, negative = inhibition) at 1uM” value falls from 14.7% to 7.72%.

First: CCCCC(c1nnnn1C1CCCC1)N1CCN(C2CCCC2)CC1.Cl (centres unmarked)
Second: COc1ccc(C(CNC(=O)C(=O)NC2CCCCC2)N2CCN(C)CC2)cc1 (centres unmarked)
The “hERG current change (%, negative = inhibition) at 1uM” value of the first is lower: -82% for the first, -2.33% for the second.

Compared with CC(C)Cn1nc(NC(=O)c2cccs2)c2cc3ccccc3nc21, CCN(C(=O)COc1ncnc2sccc12)c1ccccc1 is higher in “hERG current change (%, negative = inhibition) at 1uM” value: 12% for the first, 29.4% for the second.

First: O=C(NCCc1ccccc1)C1CCCN(S(=O)(=O)c2cnc[nH]2)C1 (centres unmarked)
Second: O=C(NCCc1ccc(Cl)cc1)c1cccnc1
The “hERG current change (%, negative = inhibition) at 1uM” value of the first is lower: 5.03% for the first, 9.38% for the second.

First: COc1cccc(Cn2cccc(NC(=O)NC3CCCCC3)c2=O)c1
Second: COc1ccc(NC(=O)C2CCCC2)cc1
The “hERG current change (%, negative = inhibition) at 1uM” value of the first is lower: 11.2% for the first, 14.6% for the second.

Compared with COc1ccc(-c2sc(NC(=O)c3ccc(C)cc3)nc2-c2ccc([N+](=O)[O-])cc2)cc1, CCOc1ccc(NC(=O)c2ccccn2)cc1 is lower in “hERG current change (%, negative = inhibition) at 1uM” value: 6.45% for the first, 5.69% for the second.

First: CC(=O)Nc1ccccc1C(=O)OCC(=O)Nc1ncccn1
Second: CN(C(=O)Oc1ccc(Cl)c2cccnc12)c1ccccc1
The “hERG current change (%, negative = inhibition) at 1uM” value of the first is higher: 12.1% for the first, 7.25% for the second.

Going from Cc1cccc(C(=O)NCC(=O)N2CCN(S(=O)(=O)/C=C/c3ccccc3)CC2)c1 to N#CCC(=O)N/N=C/c1cccc(Oc2ccccc2)c1, the “hERG current change (%, negative = inhibition) at 1uM” value rises from 0.557% to 11.6%.

First: Cc1cc(C)cc(N(CC(=O)NCc2ccco2)C(=O)CCC(=O)Nc2nccs2)c1
Second: Cc1cccc(C)c1NC(=O)CN(C)CC(=O)Nc1sc2c(c1C(N)=O)CCC2
The “hERG current change (%, negative = inhibition) at 1uM” value of the first is higher: 8.75% for the first, 4.74% for the second.

Compared with COc1cc(C(=O)NC2CCN(CC(=O)NC3CCCCC3)CC2)cc(OC)c1OC, CC(C)(C)OC(=O)N1CCC(c2c(C(=O)NC3CC3)cnn2-c2ccc(Cl)cc2)CC1 is lower in “hERG current change (%, negative = inhibition) at 1uM” value: 14.5% for the first, 6.61% for the second.

First: CCOC(=O)/C=C(C)\C=C\c1c[nH]c2ccccc12
Second: CCOn1c(=O)c(-c2cccs2)[n+]([O-])c2ccccc21
The “hERG current change (%, negative = inhibition) at 1uM” value of the first is higher: 12.5% for the first, -10.2% for the second.

Going from CSc1ccc(CN(C)CC(=O)NC(=O)NC(C)(C)C)cc1 to COc1ccc(Cl)cc1NC(=O)CN(C)C(=O)Cc1ccsc1, the “hERG current change (%, negative = inhibition) at 1uM” value falls from 10.6% to -3.38%.

Going from Cn1cnnc1SCc1ccc(F)c2ccccc12 to Cc1cc(-n2cnnn2)cc(C)c1S(=O)(=O)N(C)c1ccccc1, the “hERG current change (%, negative = inhibition) at 1uM” value rises from -0.911% to 13.8%.

First: O=C(CSc1ncccc1C(=O)O)c1cccc(C(F)(F)F)c1
Second: O=C(O)c1ccc(Sc2nnnn2-c2ccccc2)c([N+](=O)[O-])c1
The “hERG current change (%, negative = inhibition) at 1uM” value of the first is lower: 0.384% for the first, 4.93% for the second.

Going from CC(O)/C=C/c1cccc[n+]1C.[I-] (centres unmarked) to CCCCN1C(=O)/C(=C/C=C2\N(C)c3ccccc3C2(C)C)SC1=S, the “hERG current change (%, negative = inhibition) at 1uM” value rises from 2.85% to 18.3%.

Compared with O=[N+]([O-])c1ccc(Cl)cc1NCC1CCCO1 (centres unmarked), O=C(CCn1cnnn1)Nc1ccc(Cl)cc1Cl is higher in “hERG current change (%, negative = inhibition) at 1uM” value: 6.39% for the first, 9.2% for the second.

First: CC1CC(C)CN(c2nc(NCc3ccco3)nc(N)c2[N+](=O)[O-])C1 (centres unmarked)
Second: CC1CN(C(=O)CCc2cc(C(C)(C)C)c(O)c(C(C)(C)C)c2)CC(C)O1 (centres unmarked)
The “hERG current change (%, negative = inhibition) at 1uM” value of the first is lower: -14.4% for the first, -3.11% for the second.

Compared with O=[N+]([O-])c1ccc(O)c(NC(=S)Nc2ccccc2)c1, COc1cc(/C=C2/C(=N)N3C(=NC2=O)SN=C3S(C)(=O)=O)ccc1OS(=O)(=O)c1ccccc1 is lower in “hERG current change (%, negative = inhibition) at 1uM” value: 15% for the first, 14.2% for the second.

Compared with CCCCCN(C(=O)CCC(=O)OCc1cc(C)ccc1C)c1c(N)n(CCCC)c(=O)[nH]c1=O, Cc1cccc2c1=NC(=O)/C(=C/c1c(O)[nH]c(=O)[nH]c1=O)C=2 is higher in “hERG current change (%, negative = inhibition) at 1uM” value: -2.23% for the first, 3.92% for the second.
